Laboratory results published in PMC9230856.
Residue numbers refer to the chain shown, from its start. No constants are given. Whether binding was seen depends on the method and setting. Some results given as binding are weak or reduced against the parent protein; the word gives no strength. For some of these results: Sequences can lack the tags named with a protein.

Columns and labels:
[1] = molecular target: T1, human Na+/taurocholate cotransporting polypeptide (NTCP), wild type, FLAG-tagged (human) (UniProt Q14973); assay: fluorescence microscopy of labelled peptide bound to cells; T-Rex Flp-In HEK293 cell lines stably transfected with NTCP-FLAG wt, Y146A, Y146E or Y146F (tetracycline-inducible); myr-preS1-AX568 peptide; cell-based fluorescence quantified in regions of interest (RFU); only the binder purified
T1 sequence: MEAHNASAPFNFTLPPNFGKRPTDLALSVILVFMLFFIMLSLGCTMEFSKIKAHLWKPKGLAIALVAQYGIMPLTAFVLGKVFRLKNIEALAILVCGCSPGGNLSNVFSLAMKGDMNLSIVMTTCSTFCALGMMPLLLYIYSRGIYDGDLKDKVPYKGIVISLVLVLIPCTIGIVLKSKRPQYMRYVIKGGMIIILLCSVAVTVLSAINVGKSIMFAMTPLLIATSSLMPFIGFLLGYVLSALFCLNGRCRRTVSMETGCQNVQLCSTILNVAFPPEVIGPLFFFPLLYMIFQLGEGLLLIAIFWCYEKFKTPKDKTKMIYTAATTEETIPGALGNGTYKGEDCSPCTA

[2] = molecular target: human NTCP Y146F mutant, FLAG-tagged (human) (UniProt Q14973); assay: as above
[3] = molecular target: T2, human NTCP Y146A mutant, FLAG-tagged (human) (UniProt Q14973); assay: as above
T2 sequence: T1 sequence with Y146A

[4] = molecular target: human NTCP Y146E mutant, FLAG-tagged (human) (UniProt Q14973); assay: as above
[5] = molecular target: human NTCP Y141A mutant, FLAG-tagged (human) (UniProt Q14973); assay: fluorescence microscopy of labelled peptide bound to cells; HEK293 cells transiently transfected with NTCP-FLAG wt or mutants; 50 nM myr-preS1-AX568 in DMEM, 30 min (legends: 20 min) at 37 °C, washed, fixed with 2% PFA; cell-based fluorescence quantified in regions of interest (RFU); only the binder purified
[6] = molecular target: T1, human Na+/taurocholate cotransporting polypeptide (NTCP), wild type, FLAG-tagged (human); assay: as above
[7] = molecular target: human NTCP Y146F mutant, FLAG-tagged (human) (UniProt Q14973); assay: as above
[8] = molecular target: human NTCP Y139A mutant, FLAG-tagged (human) (UniProt Q14973); assay: as above
[9] = molecular target: human NTCP R143A mutant, FLAG-tagged (human) (UniProt Q14973); assay: as above
[10] = molecular target: human NTCP Y141F mutant, FLAG-tagged (human) (UniProt Q14973); assay: as above
[11] = molecular target: T2, human NTCP Y146A mutant, FLAG-tagged (human); assay: as above
[12] = molecular target: human NTCP Y146E mutant, FLAG-tagged (human) (UniProt Q14973); assay: as above
[13] = molecular target: human NTCP Y139A/Y141A/Y146A triple mutant, FLAG-tagged (human) (UniProt Q14973); assay: as above

With “myr-preS1-AX568 peptide (N-terminally myristoylated, C-terminally Alexa 568-coupled preS1 peptide, amino acids 2-48 of the large HBV surface protein, sub-genotype D3) (from UniProt P03138 2-48)” as the substance, how does the binding [1] read?
Its binding is “binds”.

And the binding [2]?
The binding was “binds weakly”.

What about the binding [3] of the same substance?
Its binding is “no binding”.

What about the binding [4] of the same substance?
Its binding is “no binding”.

And the binding [5]?
The binding was “binds”.

And the binding [6]?
The binding was “binds”.

What about the binding [7] of the same substance?
Its binding is “binds weakly”.

And the binding [8]?
The binding was “binds”.

And the binding [9]?
The binding was “binds”.

And the binding [10]?
The binding was “binds”.

What about the binding [11] of the same substance?
The binding was “no binding (tested: 50 nM)”.

What about the binding [12] of the same substance?
The binding was “no binding (tested: 50 nM)”.

And the binding [13]?
The binding was “no binding (tested: 50 nM)”.
